# Laboratory results published in PubChem BioAssay AID1460 (National Center for Advancing Translational Sciences (NCATS), 2008).
# Among all 270,000 compounds or so, about 5,800 (2.1%) were called active. The inconclusive results got no clear call from the source; some entries with a clear call stand among them for comparison. Calls come from the whole dose curve; as a rule, active = well fitted inhibition curve with a large enough effect; inconclusive = small, poorly fitted or top-dose-only effect; inactive = flat fitted curve, though single readings scatter. Where the call is inconclusive, the potency comes from a doubtful curve fit.
# Target: Microtubule-associated protein tau (Homo sapiens) (UniProt P10636)
# Assay: qHTS for Inhibitors of Tau Fibril Formation, Thioflavin T Binding; note: nearly all actives have a fitted effect of over 55% in size
# Conditions: recombinant tau K18 P301L, heparin-induced fibrillization, ThT fluorescence; series mostly up to 57.4 µM; activity, negative = inhibition: at the top concentration
# Outline: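 Using a mix of unlabeled (15 uM) and Alexa 594-labeled (0.24 uM) tau K18 P301L, heparin-triggered fibrillization over 6 hr at 37 C was scored by ThT fluorescence.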
# % is set by controls: 0 for no effect and ±100 for the full control effect; potency is the fitted concentration of half-maximal effect; tags give direction and shape of the fitted curve.
# Chain of UniProt P10636 (P10636 whole entry, looked up): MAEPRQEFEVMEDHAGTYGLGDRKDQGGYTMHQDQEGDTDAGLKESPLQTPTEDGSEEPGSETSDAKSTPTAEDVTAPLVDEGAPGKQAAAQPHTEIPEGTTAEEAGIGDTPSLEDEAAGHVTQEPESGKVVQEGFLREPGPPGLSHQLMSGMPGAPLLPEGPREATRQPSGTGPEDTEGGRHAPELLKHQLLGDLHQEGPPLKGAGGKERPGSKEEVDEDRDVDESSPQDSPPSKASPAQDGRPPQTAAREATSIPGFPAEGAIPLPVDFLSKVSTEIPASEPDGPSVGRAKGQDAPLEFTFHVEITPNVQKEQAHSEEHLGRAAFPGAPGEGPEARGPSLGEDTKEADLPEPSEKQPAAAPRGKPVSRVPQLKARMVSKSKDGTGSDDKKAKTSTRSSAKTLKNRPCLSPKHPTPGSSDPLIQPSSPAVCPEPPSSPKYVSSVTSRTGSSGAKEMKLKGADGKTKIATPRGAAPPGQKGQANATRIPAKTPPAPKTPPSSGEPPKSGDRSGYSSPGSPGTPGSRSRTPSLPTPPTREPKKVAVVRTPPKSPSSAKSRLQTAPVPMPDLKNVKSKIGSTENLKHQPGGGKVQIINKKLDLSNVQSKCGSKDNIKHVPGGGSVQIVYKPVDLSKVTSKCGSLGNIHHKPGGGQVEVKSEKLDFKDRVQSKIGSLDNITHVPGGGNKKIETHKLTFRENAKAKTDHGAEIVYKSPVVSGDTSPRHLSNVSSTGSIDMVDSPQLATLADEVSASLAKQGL
SMILES,Potency,"activity, negative = inhibition"
COc1ccc(NS(=O)(=O)c2cc(NC(=O)c3cnccn3)ccc2N2CCCC2)cc1,"inconclusive: 7.94 µM [inhibitor, single point]",
O=C(c1cccc(COc2cccc3ccccc23)c1)N1CCCC1,"inconclusive: 25.1 µM [inhibitor, partial curve, poor fit]",
c1ccc(-c2cc3c(N4CCN(c5ccccc5)CC4)ncnc3s2)cc1,"inconclusive: 7.08 µM [inhibitor, partial curve]",
CNC(=O)NC(=S)NC(=O)c1ccccc1Cl,,inactive: -7.97%
O=C(Nc1ccccc1Br)N1CCC(CN2CCCC2)CC1,"inconclusive: 35.5 µM [inhibitor, single point]",
CN1C(=O)/C(=C/c2ccco2)SC1=Nc1cccc(C(=O)O)c1,"inconclusive: 20 µM [inhibitor, single point]",
Cc1ccc(OCC(=O)Nc2ccc(-c3nc4ccccc4o3)cc2)c(C)c1,"inconclusive: 1 µM [inhibitor, full curve, poor fit]",
COc1ccc(OCCCC(=O)NCCc2nc3ccccc3[nH]2)cc1,"inconclusive: 11.2 µM [inhibitor, partial curve]",
COc1ccc(CCN2C(=O)CC(Cc3ccc(Br)cc3)C2=O)cc1OC (configuration not stated),"inconclusive: 17.8 µM [inhibitor, single point]",
CN(C)c1cccc(C(=O)OCC(=O)Nc2ccccc2Cl)c1,"inconclusive: 4.47 µM [inhibitor, partial curve, poor fit]",
CCOc1ccc(CNC(=O)Cn2c(=O)c3cccn3c3ccccc32)cc1,"inconclusive: 20 µM [inhibitor, single point]",
Cc1c(Cl)ccc2sc(N3CCN(C(=O)CS(=O)(=O)c4ccccc4)CC3)nc12,"inconclusive: 17.8 µM [inhibitor, partial curve]",
O=C1CCCC/C1=C\Nc1ccccc1C(=O)O,"inconclusive: 28.2 µM [inhibitor, single point]",
N#C/C(=C/c1ccc(-c2ccc(Br)cc2)o1)C(=O)NC1CCCCC1,"inconclusive: 12.6 µM [inhibitor, partial curve]",
Cc1cc2cc(CCNC(=O)c3cccc([N+](=O)[O-])c3)c(=O)[nH]c2cc1C,"inconclusive: 7.08 µM [inhibitor, partial curve]",
CCCCN1C(=O)/C(=c2\sc3nc(=O)c(-c4ccccc4)nn3c2=O)c2ccccc21,"inconclusive: 31.6 µM [inhibitor, single point]",
N#C/C(Cn1c[n+](NC(=O)Nc2ccccc2)cn1)=N/O,,inactive: -2.6%
COc1cc(-c2nnn(CC#N)n2)ccc1OCc1ccccc1,"inconclusive: 31.6 µM [inhibitor, partial curve, poor fit]",
COc1ccc(-c2cc(C(F)(F)F)nc(-n3cc(Cl)cn3)n2)cc1,"inconclusive: 20 µM [inhibitor, partial curve]",
O=C(/C=C/c1ccc2c(c1)OCO2)c1ccccc1,,inactive: -9.07%
O=C(Nc1ccc(Cl)cc1)N1CCC(c2nc(-c3ccccc3Cl)no2)CC1,,inactive: -2.66%

SMILES,Potency,"activity, negative = inhibition"
[O-][n+]1c2c(nn1-c1ccccc1)/C(=N/O)CCC2,,inactive: -14.4%
Nc1ccccc1-c1nnc(SCc2ccccc2Cl)[nH]c1=O,"inconclusive: 28.2 µM [inhibitor, partial curve]",
CCOC(=O)c1cc2nc(Nc3ccc(OC)cc3)sc2s1,"inconclusive: 3.55 µM [inhibitor, full curve]",
Cc1cc[n+]2cc(-c3cccc([N+](=O)[O-])c3)c(-c3cccc([N+](=O)[O-])c3)cc2c1,"inconclusive: 44.7 µM [inhibitor, single point]",
Cc1cc(C)c2c(N)c(C(=O)Nc3ccccc3C(F)(F)F)sc2n1,,inactive: -5.64%
COc1cc2c(cc1NC(=O)C(C)Oc1ccccc1)oc1ccccc12 (configuration not stated),"inconclusive: 6.31 µM [inhibitor, partial curve]",
CCC1Oc2ccccc2N(CC(=O)NCCCN2CCN(Cc3ccccc3)CC2)C1=O (configuration not stated),,inactive: -10.7%
COc1ccccc1-n1c(=O)n(C)c2c(C(N)=O)nc(-c3cc(OC)c(OC)c(OC)c3)nc21,,inactive: -4.16%
Cc1cc(C)n2nc(C(=O)Nc3ccccc3N3CCOCC3)nc2n1,,inactive: 1.24%
CC(C)C(=O)Nc1ccc(N2CCN(C(=O)c3cccs3)CC2)cc1,"inconclusive: 15.8 µM [inhibitor, partial curve]",
C/C(=N\NC(=O)c1c[nH]c2ccccc12)c1ccc2c(c1)OCO2,"inconclusive: 1.26 µM [inhibitor, full curve, poor fit]",
CCCN(CCC)S(=O)(=O)c1cccc(C(=O)Nc2ccc3c(c2)OCO3)c1,"inconclusive: 11.2 µM [inhibitor, partial curve, poor fit]",
COc1ccc(CCn2c(C)cc(C(=O)CCl)c2C)cc1OC,"inconclusive: 39.8 µM [inhibitor, single point]",
CCC(=O)OCC(=O)C1(OC(=O)CC)C(C)CC2C3C(Cl)CC4=CC(=O)C=C[C@@]4(C)C3C(O)C[C@@]21C (some centres not stated),,inactive: -13.6%
Cc1oc2c(c1C(=O)c1ccccc1)C(=O)C(=O)c1ccccc1-2,active: 7.94 µM,
O=C(c1ccccc1)C1C(=O)c2ccccc2C1=O,"inconclusive: 20 µM [inhibitor, partial curve]",
CCOC(=O)C(C)On1c(-c2ccc(Cl)cc2)nc2ccc([N+](=O)[O-])cc21 (configuration not stated),"inconclusive: 15.8 µM [inhibitor, partial curve]",
Cc1cccc(N2CCN(C(=S)c3ccc(-c4ccccc4[N+](=O)[O-])o3)CC2)c1,"inconclusive: 5.01 µM [inhibitor, partial curve]",
COc1[nH]c(/N=C/c2ccccc2)c(C#N)c1C#N,"inconclusive: 25.1 µM [inhibitor, partial curve]",
C=C(NC(=O)C(=C)NC(=O)c1csc(C2=NC3c4csc(n4)C4NC(=O)c5csc(n5)C(C(C)(O)C(C)O)NC(=O)C5CSC(=N5)C(=CC)NC(=O)C(C(C)O)NC(=O)c5csc(n5)C3(CC2)NC(=O)C(C)NC(=O)C(=C)NC(=O)C(C)NC(=O)C(C(C)CC)NC2C=Cc3c(C(C)O)cc(nc3C2O)C(=O)OC4C)n1)C(N)=O (configuration not stated),"inconclusive: 28.2 µM [inhibitor, partial curve, poor fit]",
CCOc1cc(/C=C/c2nc3ccccc3s2)ccc1OCC(=O)N1CCOCC1,"inconclusive: 2.24 µM [inhibitor, full curve, poor fit]",

SMILES,Potency,"activity, negative = inhibition"
O=C(NC(=S)Nc1cccc(-c2ccc(CO)o2)c1)c1cccs1,"inconclusive: 8.91 µM [inhibitor, full curve, poor fit]",
O=[N+]([O-])c1ccc(/C=N/NC(=S)Nc2ccccc2F)o1,"inconclusive: 17.8 µM [inhibitor, single point]",
CCCCOC(=O)c1ccc(NC(=S)NC(=O)c2c(Cl)cnn2CC)cc1,"inconclusive: 28.2 µM [inhibitor, partial curve]",
O=C(N/N=C/c1ccc([N+](=O)[O-])o1)c1cc(-c2ccncc2)nc2ccccc12,"inconclusive: 14.1 µM [inhibitor, partial curve]",
COc1ccccc1N1CCN(C(=O)CSc2nc(-c3ccco3)cc(C(F)(F)F)n2)CC1,"inconclusive: 20 µM [inhibitor, partial curve]",
COC(=O)C1=C(N)OC2=C(C(=O)CC(C)(C)C2)C1c1ccoc1 (configuration not stated),"inconclusive: 14.1 µM [inhibitor, partial curve, poor fit]",
CCOC(=O)c1ccc(NC(=O)c2c(NCc3cccc(OC)c3OC)sc3c2CCC3)cc1,"inconclusive: 14.1 µM [inhibitor, partial curve]",
CCOc1ccccc1NC(=S)/C(=C(\[O-])c1ccc2c(c1)OCCO2)[n+]1ccc(CC)cc1,"inconclusive: 25.1 µM [inhibitor, single point]",
COc1ccc(C(=O)COC(=O)CCc2ccccc2)cc1,"inconclusive: 1 µM [inhibitor, full curve]",
CCC(C)c1ccc(OCC(=O)Nc2ccc(-c3nc4ncccc4o3)cc2)cc1 (configuration not stated),"inconclusive: 0.112 µM [inhibitor, full curve, poor fit]",
Cc1cc([N+](=O)[O-])ccc1NCc1ccccc1[N+](=O)[O-],,inactive: -15.6%
COc1cc(/C=N/NS(=O)(=O)c2ccc(C)c([N+](=O)[O-])c2)ccc1O,"inconclusive: 10 µM [inhibitor, partial curve]",
Oc1ccc(-c2nc(-c3ccc(O)c(O)c3)cs2)cc1,active: 3.16 µM,
CC(=O)c1ccc(OC(=O)c2ccc(-n3nc(C)cc3C)cc2)cc1,"inconclusive: 1.26 µM [inhibitor, full curve]",
CCNc1nc(NCC)nc(Oc2ccc(OCC)nn2)n1,,inactive: -2.33%
CCOC(=O)c1cnc2ccc(Cl)cc2c1Nc1ccc(S(=O)(=O)Nc2ncccn2)cc1,"inconclusive: 35.5 µM [inhibitor, single point]",
Cc1ccccc1-c1nnc2s/c(=C\c3ccc(N(C)C)cc3)c(=O)n12,"inconclusive: 22.4 µM [inhibitor, single point]",
COc1ccc(OC)c(NC(=O)COCc2cc(-c3ccc(F)cc3)on2)c1,"inconclusive: 25.1 µM [inhibitor, single point]",
COc1cc(/C=C(/C#N)c2nc3ccccc3[nH]2)ccc1Oc1ncccc1[N+](=O)[O-],"inconclusive: 0.891 µM [inhibitor, partial curve, poor fit]",
NNc1nc(-c2ccccc2)cc(-c2ccccc2O)n1,"inconclusive: 15.8 µM [inhibitor, partial curve]",
